In the supplement of paper PMC3334620:
Whole data set: some 33,000 sequences, median “E-score (-0.5 to 0.5)” near -0.032, cut for the highest 2% near 0.36. The list shows a part of the results.

The sequences below were run against T1, Sko1 (UniProt Q02100) (assay: PBM E-score (8-mer binding enrichment) (E-score (-0.5 to 0.5)); higher = stronger / more preferred TF binding; most listed sequences are background and not binding sites). Settings: protein concentration: 200 nM; construct: GST-full length.
T1 sequence: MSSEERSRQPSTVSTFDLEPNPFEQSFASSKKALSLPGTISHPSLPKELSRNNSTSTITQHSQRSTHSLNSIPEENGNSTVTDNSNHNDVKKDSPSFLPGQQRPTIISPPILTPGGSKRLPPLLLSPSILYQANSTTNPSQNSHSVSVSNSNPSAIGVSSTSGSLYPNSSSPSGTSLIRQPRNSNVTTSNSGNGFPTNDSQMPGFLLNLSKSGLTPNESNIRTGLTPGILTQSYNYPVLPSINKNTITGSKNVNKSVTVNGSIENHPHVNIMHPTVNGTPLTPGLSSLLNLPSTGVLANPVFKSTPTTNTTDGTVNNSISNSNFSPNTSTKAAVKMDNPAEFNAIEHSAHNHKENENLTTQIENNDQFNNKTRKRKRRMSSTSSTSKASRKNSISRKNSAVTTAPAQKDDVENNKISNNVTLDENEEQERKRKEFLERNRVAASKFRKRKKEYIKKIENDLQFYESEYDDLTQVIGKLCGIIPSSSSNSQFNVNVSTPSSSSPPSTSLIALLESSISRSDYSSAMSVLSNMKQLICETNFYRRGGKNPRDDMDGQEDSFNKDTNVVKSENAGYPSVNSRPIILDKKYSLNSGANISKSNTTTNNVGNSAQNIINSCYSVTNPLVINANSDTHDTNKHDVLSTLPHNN
Summary of the method: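 Masliner-normalised scans of fluorescent anti-GST signal were the basis for scoring. That signal came from GST-tagged yeast transcription factors applied at about 100-200 nM to double-stranded universal all-10-mer Agilent arrays on fresh or once-stripped slides. Each ungapped eight-base word, pooled with its reverse complement, received an E-score from the Universal PBM Analysis Suite.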

| Sequence | PBM E-score |
| --- | --- |
| ATAGAACG | 0.226 |
| AGTCGAGA | 0.0118 |
| AAAGGCAG | -0.106 |
| TAGTGGCA | -0.0635 |
| TCAACGGA | 0.0523 |
| CAACGATC | -0.121 |
| CTACGTAA | 0.489 |
| ATGCCTGC | -0.175 |
| CATACAGA | 0.144 |
| ATGGAGGC | -0.247 |
| AAGTTCGA | 0.006 |
| GCCGTCAA | -0.081 |
| CGAGCTTA | 0.0357 |
| CCTGATCC | -0.263 |
| AAGCTTGT | 0.0822 |
| CTTCTGCC | -0.11 |
| GTTTGGCA | 0.051 |
| AGCGACAA | 0.0454 |
| AAGGTTTG | 0.124 |
| TATGGCAA | -0.0424 |
| CCTATCTC | -0.0534 |
| GACGGCTC | -0.301 |
| CTGGAGCA | -0.176 |
| AAATACCC | -0.0735 |
| GCAAAGCA | 0.0107 |

| Sequence | PBM E-score |
| --- | --- |
| GCTCGGCC | -0.295 |
| AGGGCTCA | -0.375 |
| CTCCCGTC | 0.0312 |
| ACAGTACT | -0.0322 |
| AATCGGGA | -0.0793 |
| CTATCGAC | -0.288 |
| CTGTACGC | 0.115 |
| GCCGAAAA | 0.139 |
| AGTCAACT | -0.141 |
| CTAGTGCA | -0.0221 |
| CAATCGGC | -0.101 |
| ACAAATTC | 0.124 |
| TGTGCCAA | 0.101 |
| GCCAAACA | -0.0618 |
| GCCGCACC | -0.0862 |
| CCTGACAG | -0.164 |
| CACAATAA | 0.111 |
| CCAAGCTC | 0.0129 |
| CAGTATTC | 0.159 |
| CGCGGTAA | 0.0948 |
| AGGGCCTC | -0.29 |
| AAGGCTGT | -0.282 |
| GGTCGAAA | -0.175 |
| GACCCTAC | -0.0556 |
| GGTACTCA | 0.0274 |

| Sequence | PBM E-score |
| --- | --- |
| ATAGCGAT | 0.0688 |
| GCACCATA | -0.0106 |
| CTGCCGTA | -0.0775 |
| TATCACAA | 0.156 |
| CTTTTGTC | 0.0309 |
| CCCTTCAC | -0.0956 |
| GGTTCGTA | 0.119 |
| CGCTCCAC | -0.305 |
| CATTTTAG | 0.164 |
| ACAGCCTC | -0.184 |
| TCTTTACA | 0.0605 |
| AGCTAAAA | 0.129 |
| ATGGCATG | 0.139 |
| TAGAGCAA | -0.138 |
| ATTCGAAG | 0.0402 |
| GTCGGCGA | -0.0906 |
| TGATCGAA | 0.0913 |
| CAGCTCAG | -0.0505 |
| AATGGTGT | 0.108 |
| ATATTTCC | 0.0933 |
| CCTGTCCC | -0.342 |
| TATGCCGA | -0.0317 |
| AGAACCTG | -0.192 |
| ATGTCGTA | 0.424 |
| GATTAAAC | 0.171 |

| Sequence | PBM E-score |
| --- | --- |
| CGTGTCCA | 0.0882 |
| TAACGATA | 0.319 |
| AGGGACTC | -0.28 |
| ACCAAGTG | -0.237 |
| AGGGCGGA | -0.265 |
| ACAGTTGC | 0.121 |
| ATTTACCA | 0.109 |
| CCGCTTCC | -0.273 |
| CCACTTAA | 0.0677 |
| AGGTGCTC | -0.262 |
| AAGAGATC | -0.137 |
| CATCTACG | 0.2 |
| AGCCCCAC | -0.137 |
| AAACTCGC | -0.187 |
| ACAGTGGC | -0.0839 |
| GGGCTGGA | -0.212 |
| CGTTCAAG | 0.0946 |
| GCAGAGGA | -0.185 |
| TCCCATAA | -0.145 |
| AACACAGT | -0.0914 |
| CAGTAACG | 0.195 |
| TACCTCGA | 0.0363 |
| GATACCGA | -0.0867 |
| GAGAGTAC | 0.111 |
| GGATACCA | -0.014 |

| Sequence | PBM E-score |
| --- | --- |
| AAGGTCGT | -0.0153 |
| AGGGAGTC | -0.0522 |
| AAAGCCTC | -0.206 |
| AGTGGAGC | -0.325 |
| ATAAATCA | 0.199 |
| CGGAGCTA | -0.138 |
| AGGTGGCA | -0.152 |
| CCGGTGAA | -0.14 |
| TATGCCAA | 0.127 |
| AACTTGAC | 0.181 |
| CTACGGAA | 0.157 |
| GCATTAGA | 0.116 |
| CCCTGCAC | -0.197 |
| GCGCCGAC | -0.128 |
| GCCTGTTA | -0.133 |
| GGCAACCA | -0.17 |
| AGATGAAG | -0.115 |
| ACTCATGG | -0.0551 |
| ATTTCTTC | 0.051 |
| AGGGGCTG | -0.223 |
| CCATTGCA | 0.0605 |
| CTCGAACA | 0.163 |
| CAATTGAC | 0.105 |
| AGTTCTAC | 0.125 |
| ACCGACCG | -0.193 |

| Sequence | PBM E-score |
| --- | --- |
| CCGTAGCC | -0.259 |
| ACTTACTG | 0.0462 |
| CCACCGCC | -0.24 |
| ATTTGGCA | -0.0462 |
| GAGACTCA | -0.119 |
| CTGCTTAA | -0.00146 |
| CTGCCCAG | -0.229 |
| CCAGTTAG | 0.0486 |
| CTGAAGTA | 0.0582 |
| ACAACGTG | 0.218 |
| CAGCTAAG | -0.281 |
| CGGCAACG | -0.0449 |
| GGCTAGAC | -0.131 |
| CTATCCTA | -0.162 |
| CGGTAATC | -0.108 |
| GCAAATCC | -0.0641 |
| AGCATCCA | -0.238 |
| ATGGTTAG | -0.0395 |
| CTCCACAC | -0.197 |
| AACCGGAG | -0.197 |
| CTGCAAAG | -0.18 |
| GGGGAGCA | -0.133 |
| GCCGCCAC | -0.294 |
| TAAGCGGA | -0.0919 |
| CGTTAGCC | 0.0984 |

| Sequence | PBM E-score |
| --- | --- |
| CAGAACTA | -0.0397 |
| CCCAACCC | -0.139 |
| ACGCCACT | 0.209 |
| ATCCAATA | 0.151 |
| AGCTACCG | -0.255 |
| AGTGTACG | 0.237 |
| CCGTTCTC | -0.104 |
| AAATAGGA | 0.158 |
| AACTGCTG | -0.249 |
| AGAGGGTA | -0.035 |
| CGCAGCCG | -0.0841 |
| CACTGACG | 0.424 |
| GATAATTA | 0.284 |
| CGCTCAAA | -0.0492 |
| CCCCGGAG | -0.191 |
| GTCACAAA | 0.177 |
| AATTCTCT | -0.0731 |
| CAGTTTGA | -0.00061 |
| ACACCTGT | -0.164 |
| GCCGCTCC | -0.396 |
| AAGGCGCT | -0.16 |
| CGCTGCAA | 0.0869 |
